The list shows a part of the results. Antibody binding of pooled human sera (four to six donors per pool; dilution not stated) to peptides of the Trypanosoma cruzi antigen TSSA on microarrays. Quantile-normalised fluorescence in arbitrary units, mean of duplicate arrays; higher = more binding. No active / inactive call. The uninfected pools are read here as the healthy donors of the same country. The strongest signals lie near the top of the scale (about 60,000).
Test system: pooled sera of uninfected people, Colombia
Assay: antibody binding signal (normalised fluorescence) (arbitrary fluorescence units); higher = stronger serum antibody binding to peptide
Description: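 Microarray of 15-residue peptides over residues 30-55 of Trypanosoma cruzi TSSAII, each with 1 to 10 substitutions at naturally variable positions, probed with one serum pool per country.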

Sequence | antibody binding signal
KENKAAAGGAPSPPG | 117
EKKPAAGETPSQSGA | 493
GKENKPATGEAPSQS | 215
TDNKTAAGGAPSPSG | 230
KEKKPAAGGAPSQPG | 99.8
GTEKKTATGEAPSPP | 124
KDKKTATGETPSQSG | 74.8
STPPSGTDKKPAAGE | 304
ENKPATGEAPSQSGA | 145
TPPSGTDKKPATGGT | 340
KEKKAATGGAPSPPG | 264
GTEKKTATGGAPSPP | 110
TISTPPSGKDKKAAA | 139
TENKPAAGEAPSPPG | 75.3
SGKEKKPAAGETPSQ | 266
TPPSGKENKPATGGT | 563
DNKPAAGETPSQPGA | 344
DNKPATGEAPSQPGA | 274
PSGTDKKTATGEAPS | 240
GTENKPATGGTPSQP | 237

Sequence | antibody binding signal
PPSGTEKKTAAGGTP | 211
SGTENKPATGGTPSP | 416
KDKKTATGGAPSPPG | 77
PSGKDNKAATGGAPS | 171
KEKKAAAGEAPSPSG | 74.8
SGTENKAATGETPSP | 129
GKENKPAAGGTPSQS | 186
GTEKKAATGETPSPS | 674
KENKPAAGGAPSPPG | 127
GTDKKAATGETPSPP | 543
KDKKAATGEAPSPPG | 176
TENKPATGETPSPSG | 142
GTENKTAAGGTPSPP | 407
KAAAGGAPSPSGASS | 106
NKAAAGGTPSQPGAS | 539
SGKEKKAATGETPSQ | 280
TDKKAAAGETPSQPG | 819
PSGKDNKPAAGETPS | 441
GTDNKAAAGGTPSPS | 552
SGKEKKAATGEAPSQ | 230

From the supplement of paper PMC10441789
